# A collection of fitness landscapes (doi:10.1126/science.1257360)
# This is one part of the list.
# B1: PhoQ; a variant is named by its letters at X, in order, P23837 (parent)
# chain: MKKLLRLFFPLSLRVRFLLATAAVVLVLSLAYGMVALIGYSVSFDKTTFRLLRGESNLFYTLAKWENNKLHVELPENIDKQSPTMTLIYDENGQLLWAQRDVPWLMKMIQPDWLKSNGFHEIEADVNDTSLLLSGDHSIQQQLQEVREDDDDAEMTHSVAVNVYPATSRMPKLTIVVVDTIPVELKSSYMVWSWFIYVLSANLLLVIPLLWVAAWWSLRPIEALAKEVRELEEHNRELLNPATTRELTSLVRNLNRLLKSERERYDKYRTTLTDLTHSLKTPLXXLQXXLRSLRSEKMSVSDAEPVMLEQISRISQQIGYYLHRASMRGGTLLSRELHPVAPLLDNLTSALNKVYQRKGVNISLDISPEISFVGEQNDFVEVMGNVLDNACKYCLEFVEISARQTDEHLYIVVEDDGPGIPLSKREVIFDRGQRVDTLRPGQGVGLAVAREITEQYEGKIVAGESMLGGARMEVIFGRQHSAPKDE
# Variants of: B1
# Test: enrichment ratio after two sorts for PhoP signalling (ratio (wild type AVST 3.29)); higher = more functional
# Settings: with PhoP (E. coli)
row,Variant,enrichment ratio
1,CHPC,≤ 0.25
2,KRWS,≤ 0.25
3,SCPH,≤ 0.25
4,NHLS,≤ 0.25
5,RLLM,≤ 0.25
6,MERH,≤ 0.25
7,ANDG,≤ 0.25
8,ETCA,≤ 0.25
9,LKCY,≤ 0.25
10,HSDN,≤ 0.25
11,REMT,≤ 0.25
12,VENT,≤ 0.25
13,HPMF,≤ 0.25
14,ACRN,≤ 0.25
15,MEVE,≤ 0.25
16,PIML,≤ 0.25
17,MGQC,≤ 0.25
18,HFPR,≤ 0.25
19,RRSN,≤ 0.25
20,FYWW,≤ 0.25
21,TPQQ,≤ 0.25
22,NRAW,≤ 0.25
23,LRFS,≤ 0.25
24,NLAQ,≤ 0.25

row,Variant,enrichment ratio
1,RQDD,≤ 0.25
2,KQGN,≤ 0.25
3,CFSR,≤ 0.25
4,QKFA,≤ 0.25
5,LDSQ,≤ 0.25
6,KLMA,≤ 0.25
7,HMMR,≤ 0.25
8,EFFW,≤ 0.25
9,SEET,6.48
10,KSSD,≤ 0.25
11,LILD,≤ 0.25
12,NAKE,≤ 0.25
13,QNVL,≤ 0.25
14,HETY,≤ 0.25
15,WGYS,≤ 0.25
16,LIVR,≤ 0.25
17,MVSG,0.389
18,VFCC,≤ 0.25
19,YRGN,≤ 0.25
20,CVCM,≤ 0.25
21,EDPH,≤ 0.25
22,LDIY,≤ 0.25
23,QMNP,≤ 0.25
24,EPCL,≤ 0.25

row,Variant,enrichment ratio
1,VFTL,≤ 0.25
2,DLNQ,≤ 0.25
3,LYCK,≤ 0.25
4,DFML,≤ 0.25
5,HDKP,≤ 0.25
6,HNRY,≤ 0.25
7,GRSW,≤ 0.25
8,GIHF,≤ 0.25
9,IVTC,≤ 0.25
10,YLLQ,≤ 0.25
11,DSML,≤ 0.25
12,DQFV,≤ 0.25
13,FHHW,≤ 0.25
14,REFI,≤ 0.25
15,GKAK,≤ 0.25
16,NGQH,≤ 0.25
17,VQPK,≤ 0.25
18,RAYW,≤ 0.25
19,ISWL,≤ 0.25
20,EDYD,≤ 0.25
21,QALD,≤ 0.25
22,HLDS,≤ 0.25
23,RMIH,≤ 0.25
24,QNQH,≤ 0.25

row,Variant,enrichment ratio
1,DQGM,≤ 0.25
2,HWQY,≤ 0.25
3,HSFC,≤ 0.25
4,REFF,≤ 0.25
5,NVHI,≤ 0.25
6,DLLQ,≤ 0.25
7,CLSV,≤ 0.25
8,PSNH,≤ 0.25
9,SAVY,1.85
10,YWDD,≤ 0.25
11,THGK,≤ 0.25
12,QNNN,≤ 0.25
13,KQGI,≤ 0.25
14,VKRD,≤ 0.25
15,HSGR,≤ 0.25
16,SEME,≤ 0.25
17,PSFK,≤ 0.25
18,IGIW,≤ 0.25
19,DCSS,≤ 0.25
20,GYDR,≤ 0.25
21,LGAE,≤ 0.25
22,QMMQ,≤ 0.25
23,MVCS,≤ 0.25
24,VGIM,≤ 0.25

row,Variant,enrichment ratio
1,QGCD,≤ 0.25
2,TKAN,≤ 0.25
3,RGTN,≤ 0.25
4,LLVR,≤ 0.25
5,YNGA,≤ 0.25
6,SRAW,≤ 0.25
7,QYNN,≤ 0.25
8,WRPI,≤ 0.25
9,MFME,≤ 0.25
10,QQSD,≤ 0.25
11,HYES,≤ 0.25
12,KLVS,≤ 0.25
13,DETN,≤ 0.25
14,AQRQ,≤ 0.25
15,PRKM,≤ 0.25
16,LEFE,≤ 0.25
17,NPGG,≤ 0.25
18,WDEG,≤ 0.25
19,LKSR,≤ 0.25
20,PCIW,≤ 0.25
21,SGKR,≤ 0.25
22,YRNC,≤ 0.25
23,RNLG,≤ 0.25
24,KDFI,≤ 0.25

row,Variant,enrichment ratio
1,MMEQ,≤ 0.25
2,HYNT,≤ 0.25
3,SKGL,0.548
4,DQLT,≤ 0.25
5,RCVK,≤ 0.25
6,QGVY,≤ 0.25
7,NPEF,≤ 0.25
8,VCES,≤ 0.25
9,AIYV,≤ 0.25
10,TNPQ,≤ 0.25
11,NFDA,≤ 0.25
12,DEVM,≤ 0.25
13,EHSM,≤ 0.25
14,PFDW,≤ 0.25
15,NESE,≤ 0.25
16,SSVT,14.6
17,RLAC,≤ 0.25
18,FFCT,≤ 0.25
19,GMAK,≤ 0.25
20,RCPT,≤ 0.25
21,AHLT,≤ 0.25
22,TDHT,≤ 0.25
23,PVQQ,≤ 0.25
24,GECH,4.96

row,Variant,enrichment ratio
1,TMML,6.33
2,SQLK,≤ 0.25
3,TTLT,15.8
4,KKES,≤ 0.25
5,RALH,≤ 0.25
6,AWLT,≤ 0.25
7,WNGV,≤ 0.25
8,TIDF,3.66
9,VRAV,≤ 0.25
10,NAQL,≤ 0.25
11,MWRI,≤ 0.25
12,PLQE,≤ 0.25
13,RGFL,≤ 0.25
14,ECCF,≤ 0.25
15,ASNE,≤ 0.25
16,ATMT,≤ 0.25
17,PAPR,≤ 0.25
18,FHHF,≤ 0.25
19,TLWL,≤ 0.25
20,ATNF,20.9
21,RFMP,≤ 0.25
22,AAKQ,≤ 0.25
23,DMIL,≤ 0.25
24,KTRD,≤ 0.25

row,Variant,enrichment ratio
1,VHYK,≤ 0.25
2,ERSG,≤ 0.25
3,LGFR,≤ 0.25
4,PHFA,≤ 0.25
5,FYLM,≤ 0.25
6,TIHP,≤ 0.25
7,KPHQ,≤ 0.25
8,DTSL,≤ 0.25
9,NPNL,≤ 0.25
10,VVLQ,≤ 0.25
11,PDLW,≤ 0.25
12,WFQP,≤ 0.25
13,SCTR,1.82
14,AGCH,11.6
15,KMQA,≤ 0.25
16,AKTQ,≤ 0.25
17,GKLW,≤ 0.25
18,IAYQ,≤ 0.25
19,WHTS,≤ 0.25
20,SGTD,≤ 0.25
21,YQKK,≤ 0.25
22,HSEG,≤ 0.25
23,EKDT,≤ 0.25
24,RVGK,≤ 0.25

row,Variant,enrichment ratio
1,WYFV,≤ 0.25
2,MMYQ,≤ 0.25
3,VFNF,≤ 0.25
4,FFKL,≤ 0.25
5,TAVG,≤ 0.25
6,YACQ,≤ 0.25
7,NPYY,≤ 0.25
8,DGFF,≤ 0.25
9,PPPV,≤ 0.25
10,LHNK,≤ 0.25
11,DEHT,≤ 0.25
12,IWGH,≤ 0.25
13,DVEP,≤ 0.25
14,YPFN,≤ 0.25
15,ALCK,8.18
16,WEHR,≤ 0.25
17,GPMP,≤ 0.25
18,QQDV,≤ 0.25
19,NKMI,≤ 0.25
20,NALN,≤ 0.25
21,QMIS,≤ 0.25
22,GNYH,≤ 0.25
23,QTMP,≤ 0.25
24,KYTD,≤ 0.25

row,Variant,enrichment ratio
1,FVFL,≤ 0.25
2,EHQF,≤ 0.25
3,MNRC,≤ 0.25
4,VNWT,≤ 0.25
5,VTAG,≤ 0.25
6,SEFY,5.8
7,WEIL,≤ 0.25
8,AYPV,≤ 0.25
9,TTMT,2.97
10,NHCI,≤ 0.25
11,VELS,4.74
12,DLCK,≤ 0.25
13,KHET,≤ 0.25
14,GPFA,≤ 0.25
15,HFGW,≤ 0.25
16,DAYE,≤ 0.25
17,PNMK,≤ 0.25
18,YRHD,≤ 0.25
19,EMLW,≤ 0.25
20,MWYQ,≤ 0.25
21,YKTR,≤ 0.25
22,HDTQ,≤ 0.25
23,DLTK,≤ 0.25
24,ASVG,14.7

row,Variant,enrichment ratio
1,RSSS,≤ 0.25
2,DAAV,≤ 0.25
3,FVKS,≤ 0.25
4,FTAK,≤ 0.25
5,YYCK,≤ 0.25
6,FKCI,≤ 0.25
7,NQNS,≤ 0.25
8,DDHY,≤ 0.25
9,LEQI,≤ 0.25
10,LNIR,≤ 0.25
11,VGHD,≤ 0.25
12,MAKA,≤ 0.25
13,SPQI,≤ 0.25
14,IMNL,≤ 0.25
15,IQFR,≤ 0.25
16,EDFP,≤ 0.25
17,DSCW,≤ 0.25
18,WMSM,≤ 0.25
19,HDFG,≤ 0.25
20,DAQE,≤ 0.25
21,WNTT,≤ 0.25
22,NFLF,≤ 0.25
23,WVGW,≤ 0.25
24,RCNM,≤ 0.25

row,Variant,enrichment ratio
1,ESQA,≤ 0.25
2,RLDN,≤ 0.25
3,VMMV,≤ 0.25
4,VSFH,≤ 0.25
5,KPPD,≤ 0.25
6,WKGI,≤ 0.25
7,RVSN,≤ 0.25
8,MDGV,≤ 0.25
9,QQNE,≤ 0.25
10,GDFP,≤ 0.25
11,DIAV,≤ 0.25
12,QQIN,≤ 0.25
13,SPRW,≤ 0.25
14,KCYV,≤ 0.25
15,VCIS,0.315
16,AHSQ,≤ 0.25
17,ETKV,≤ 0.25
18,PTHS,≤ 0.25
19,ASDM,≤ 0.25
20,FKSA,≤ 0.25
21,EEAI,≤ 0.25
22,YFAF,≤ 0.25
23,SVGD,≤ 0.25
24,DKAV,≤ 0.25

row,Variant,enrichment ratio
1,QHTY,≤ 0.25
2,NIEP,≤ 0.25
3,PFVC,≤ 0.25
4,YPYC,≤ 0.25
5,VGLP,≤ 0.25
6,MFCW,≤ 0.25
7,SMQD,≤ 0.25
8,RHIM,≤ 0.25
9,MPRA,≤ 0.25
10,YNMS,≤ 0.25
11,LYAA,≤ 0.25
12,TADY,4.58
13,TCCD,≤ 0.25
14,TFTA,2.47
15,FELH,1.49
16,MPIT,≤ 0.25
17,ERYQ,≤ 0.25
18,NDCH,1.06
